Results taken from the supplement of paper PMC10037445.
± gives the standard deviation of the averaged measurements. Whole data set: some 2,900 compounds, median “IRF Lucia reporter activity, fold change vs agonist alone” near 0.9, cut for the highest 2% near 2.8. The list shows a part of the results.

How the values were obtained:
[1] = system: RAW-Dual; assay: IRF Lucia reporter activity, fold change vs agonist alone; higher = enhanced IRF activity; conditions: agonist: MPLA (TLR4) […]
Procedure, shortened: (§1)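 Library stock was pin-tooled at 50 nL into 384-well plates of RAW-Dual macrophages (50,000 cells/well, DMEM), followed 1 h later by a PRR agonist, and the cells were kept at 37 °C, 5% CO2. Supernatant collected after 20 hours was read for IRF by QuantiLuc luminescence and for NF-κB by QuantiBlue absorbance at 620 nm. Reporter activity is fold change over agonist-alone wells, and a well counted as cytotoxic when its IncuCyte confluency was below 70% of agonist controls in both mask sets.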

[2] = system: RAW-Dual; assay: IRF Lucia reporter activity, fold change vs agonist alone; cytotoxicity flag (confluency mask): not cytotoxic; higher = enhanced IRF activity
Procedure, shortened: as §1

[3] = system: RAW-Dual; assay: IRF Lucia reporter activity, fold change vs agonist alone; cytotoxicity flag (confluency mask): cytotoxic (confluency <70% of control); higher = enhanced IRF activity
Procedure, shortened: as §1

[4] = library stock concentration (final ~1000-fold dilution): 10 mM, cytotoxicity flag (confluency mask): not cytotoxic
[5] = agonist: 3'3'-cGAMP (STING) 10 ug/mL
[6] = library stock concentration (final ~1000-fold dilution): 10 mM, cytotoxicity flag (confluency mask): cytotoxic (confluency <70% of control)

## CC(C(O)c1ccc(O)cc1)N1CCC(Cc2ccccc2)CC1.CC(C(O)c1ccc(O)cc1)N1CCC(Cc2ccccc2)CC1.O=C(O)C(O)C(O)C(=O)O (stereo not drawn)
[1]; [4]
  IRF Lucia reporter activity: 1.17

## CCNC(=O)Nc1ccc(-c2nc3c(c(N4CCOCC4C)n2)CCN(C2COC2)C3)cc1 (stereo not drawn) (library stock concentration (final ~1000-fold dilution): 10 mM)
[2]; [5]
  IRF Lucia reporter activity: 0.803
[2]; agonist: LPS (TLR4) 0.1 ug/mL
  IRF Lucia reporter activity: 0.984

## CCCS(=O)c1ccc2nc(NC(=O)OC)[nH]c2c1 (stereo not drawn) (library stock concentration (final ~1000-fold dilution): 10 mM)
[2]; [5]
  IRF Lucia reporter activity: 1.11
[2]; agonist: LPS (TLR4) 0.1 ug/mL
  IRF Lucia reporter activity: 0.968

## CCCS(=O)c1ccc2nc(NC(=O)OC)[nH]c2c1 (stereo not drawn)
[1]; [4]
  IRF Lucia reporter activity: 0.743

## COc1ccc(CC(N)C(=O)NC2C(CO)OC(n3cnc4c(N(C)C)ncnc43)C2O)cc1.Cl.Cl (stereo not drawn) (library stock concentration (final ~1000-fold dilution): 10 mM)
[2]; [5]
  IRF Lucia reporter activity: 0.173
[2]; agonist: LPS (TLR4) 0.1 ug/mL
  IRF Lucia reporter activity: 2.15

## COc1ccc(CC(N)C(=O)NC2C(CO)OC(n3cnc4c(N(C)C)ncnc43)C2O)cc1.Cl.Cl (stereo not drawn)
[1]; [4]
  IRF Lucia reporter activity: 2.54

## COc1cc2nc(N3CCN(C(=O)C4COc5ccccc5O4)CC3)nc(N)c2cc1OC.CS(=O)(=O)O (stereo not drawn)
[1]; [4]
  IRF Lucia reporter activity: 1.66

## COc1cc2nc(N3CCN(C(=O)C4COc5ccccc5O4)CC3)nc(N)c2cc1OC.CS(=O)(=O)O (stereo not drawn) (library stock concentration (final ~1000-fold dilution): 10 mM)
[2]; [5]
  IRF Lucia reporter activity: 0.214
[2]; agonist: LPS (TLR4) 0.1 ug/mL
  IRF Lucia reporter activity: 1.07

## COc1ccnc2[nH]cc(C(=O)C(=O)N3CCN(C(=O)c4ccccc4)CC3C)c12 (stereo not drawn)
[1]; [4]
  IRF Lucia reporter activity: 0.872

## COc1ccnc2[nH]cc(C(=O)C(=O)N3CCN(C(=O)c4ccccc4)CC3C)c12 (stereo not drawn) (library stock concentration (final ~1000-fold dilution): 10 mM)
[2]; [5]
  IRF Lucia reporter activity: 0.969
[2]; agonist: LPS (TLR4) 0.1 ug/mL
  IRF Lucia reporter activity: 0.753

## c1cncc(-c2c[nH]nn2)c1 (library stock concentration (final ~1000-fold dilution): 10 mM)
[2]; [5]
  IRF Lucia reporter activity: 0.768
[2]; agonist: LPS (TLR4) 0.1 ug/mL
  IRF Lucia reporter activity: 0.853

## CC=C1C(=O)CC2C3CCC4=CC(=O)CCC4(C)C3CCC12C (stereo not drawn)
[1]; [4]
  IRF Lucia reporter activity: 0.993

## CC=C1C(=O)CC2C3CCC4=CC(=O)CCC4(C)C3CCC12C (stereo not drawn) (library stock concentration (final ~1000-fold dilution): 10 mM)
[2]; [5]
  IRF Lucia reporter activity: 1.15
[2]; agonist: LPS (TLR4) 0.1 ug/mL
  IRF Lucia reporter activity: 0.711

## CC(C)(C)S(=O)(=O)c1ccc2nccc(Nc3n[nH]c4ccc(F)cc34)c2c1 (library stock concentration (final ~1000-fold dilution): 10 mM)
[2]; [5]
  IRF Lucia reporter activity: 0.259 ± 0.021
[2]; agonist: LPS (TLR4) 0.1 ug/mL
  IRF Lucia reporter activity: 0.456 ± 0.079

## CCC1OC(=O)C(C)C(OC2CC(C)(OC)C(O)C(C)O2)C(C)C(OC2OC(C)CC(N(C)C)C2O)C(C)(OC)CC(C)C(=O)C(C)C(O)C1(C)O (stereo not drawn) (library stock concentration (final ~1000-fold dilution): 10 mM)
[2]; [5]
  IRF Lucia reporter activity: 0.478
[2]; agonist: LPS (TLR4) 0.1 ug/mL
  IRF Lucia reporter activity: 1.19

## CCC1OC(=O)C(C)C(OC2CC(C)(OC)C(O)C(C)O2)C(C)C(OC2OC(C)CC(N(C)C)C2O)C(C)(OC)CC(C)C(=O)C(C)C(O)C1(C)O (stereo not drawn)
[1]; [4]
  IRF Lucia reporter activity: 1.01

## Cc1cncc(CN2CCC(=C3c4ccc(Cl)cc4CCc4cccnc43)CC2)c1.O=C(O)/C=C/C(=O)O
[1]; [6]
  IRF Lucia reporter activity: 0.902

## Cc1cncc(CN2CCC(=C3c4ccc(Cl)cc4CCc4cccnc43)CC2)c1.O=C(O)/C=C/C(=O)O (library stock concentration (final ~1000-fold dilution): 10 mM)
[3]; [5]
  IRF Lucia reporter activity: 0.36
[3]; agonist: LPS (TLR4) 0.1 ug/mL
  IRF Lucia reporter activity: 0.712

## CC(C)c1cc2c(N3CCN(C4=NCC(C)(C)S4)CC3)ncnc2s1 (library stock concentration (final ~1000-fold dilution): 10 mM)
[2]; [5]
  IRF Lucia reporter activity: 0.767
[2]; agonist: LPS (TLR4) 0.1 ug/mL
  IRF Lucia reporter activity: 0.945

## COc1cccc(CCc2ccccc2OCC(CN(C)C)OC(=O)CCC(=O)O)c1.Cl (stereo not drawn) (library stock concentration (final ~1000-fold dilution): 10 mM)
[2]; [5]
  IRF Lucia reporter activity: 0.755
[2]; agonist: LPS (TLR4) 0.1 ug/mL
  IRF Lucia reporter activity: 1.09

## COc1cccc(CCc2ccccc2OCC(CN(C)C)OC(=O)CCC(=O)O)c1.Cl (stereo not drawn)
[1]; [4]
  IRF Lucia reporter activity: 0.981

## CCCCCCCCCCCCCCCCOc1nc2ccc(C)cc2c(=O)o1 (library stock concentration (final ~1000-fold dilution): 2 mM)
[2]; [5]
  IRF Lucia reporter activity: 0.984
[2]; agonist: LPS (TLR4) 0.1 ug/mL
  IRF Lucia reporter activity: 1.02

## CCCCCCCCCCCCCCCCOc1nc2ccc(C)cc2c(=O)o1
[1]; library stock concentration (final ~1000-fold dilution): 2 mM, cytotoxicity flag (confluency mask): not cytotoxic
  IRF Lucia reporter activity: 1.26

## CC(C)(Sc1ccncc1-c1ccc(C#N)c2ccccc12)C(=O)O (library stock concentration (final ~1000-fold dilution): 10 mM)
[2]; [5]
  IRF Lucia reporter activity: 0.856
[2]; agonist: LPS (TLR4) 0.1 ug/mL
  IRF Lucia reporter activity: 0.963

## Cc1noc(C)c1-c1ccc(-c2cc(C(N)=O)c(NC(N)=O)s2)c(O[C@H]2CCNC2)c1 (library stock concentration (final ~1000-fold dilution): 10 mM)
[2]; [5]
  IRF Lucia reporter activity: 0.958
[2]; agonist: LPS (TLR4) 0.1 ug/mL
  IRF Lucia reporter activity: 0.315

## CCCCCCCc1ccc(CCc2cccc(O)c2C(=O)O)cc1
[1]; [6]
  IRF Lucia reporter activity: 0.935

## CCCCCCCc1ccc(CCc2cccc(O)c2C(=O)O)cc1 (library stock concentration (final ~1000-fold dilution): 10 mM)
[3]; [5]
  IRF Lucia reporter activity: 1.15
[3]; agonist: LPS (TLR4) 0.1 ug/mL
  IRF Lucia reporter activity: 1.85
